Data as given in PubChem BioAssay AID1159614 (National Center for Advancing Translational Sciences (NCATS), 2016).
Among all 45,000 compounds or so, about 65 (0.1%) were called active. Calls follow the shape of the dose curve; as a rule, active = well fitted activation curve with a large enough effect; inconclusive = small, poorly fitted or top-dose-only effect; inactive = no such curve, though single readings can be large or run the other way. Some of the results follow.

Target: Galactocerebrosidase (Homo sapiens) (UniProt P54803)
Assay: A Novel Cell-Based Assay to Identify Small Molecules for B -Galactocerebrosidase; also: 0% is about no effect; nearly all actives have a fitted effect of over 65% in size
Conditions: 145M-Twi-hGALC-G270D cells (Twitcher mouse brain line with human GALC G270D), HMU-beta-Gal fluorescence, 48 h; series mostly up to 57.5 µM; activation: at the top concentration
Method in brief: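 Fluorogenic HMU-b-Gal hydrolysis (0.1 mM final, pH 5.2 citrate-phosphate with 1 mg/mL sodium taurocholate; carbonate stop buffer) measures mutant GALC activity after compound treatment of live 145M-Twi Twitcher brain cells stably carrying human GALC-G270D, with wild-type GALC line alongside; activation sought.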

Chain of UniProt P54803 (P54803 whole entry, looked up): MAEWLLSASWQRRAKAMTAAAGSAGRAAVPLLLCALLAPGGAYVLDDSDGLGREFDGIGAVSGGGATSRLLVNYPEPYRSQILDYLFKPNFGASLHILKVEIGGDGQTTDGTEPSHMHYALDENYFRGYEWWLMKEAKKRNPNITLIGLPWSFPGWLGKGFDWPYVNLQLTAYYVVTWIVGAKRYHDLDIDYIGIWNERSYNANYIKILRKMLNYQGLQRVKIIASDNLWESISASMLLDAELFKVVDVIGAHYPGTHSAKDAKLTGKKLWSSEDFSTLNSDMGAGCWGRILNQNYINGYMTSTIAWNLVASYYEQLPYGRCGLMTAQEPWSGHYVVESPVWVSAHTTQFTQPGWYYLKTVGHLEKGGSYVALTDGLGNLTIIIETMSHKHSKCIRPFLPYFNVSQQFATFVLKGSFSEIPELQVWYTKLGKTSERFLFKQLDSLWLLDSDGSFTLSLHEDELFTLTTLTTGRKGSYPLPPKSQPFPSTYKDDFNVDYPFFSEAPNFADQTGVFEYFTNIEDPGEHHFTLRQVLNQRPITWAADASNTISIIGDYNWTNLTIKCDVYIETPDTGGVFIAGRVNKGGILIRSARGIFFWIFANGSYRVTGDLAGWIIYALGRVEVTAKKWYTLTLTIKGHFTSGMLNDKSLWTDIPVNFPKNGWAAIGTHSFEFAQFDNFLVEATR

activation, inactive:
O=C(CSc1nc2ccccc2nc1Cc1ccc(Cl)cc1)N1CCCCC1 -6.71%
CCCCOC(=O)c1ccc(NC(=O)c2ccc3c(c2)CCCN3S(C)(=O)=O)cc1 -45.6%
Cc1ccc(NC(=O)C2CCN(S(=O)(=O)c3ccc4c(c3)CCCC(=O)N4)CC2)c(Br)c1 -11.8%
COc1ccc(NC(=O)CN2CCCN(Cc3ccccc3)S2(=O)=O)cc1 -2.88%
Fc1ccc(CNc2nc(-c3ccc(Cl)cc3)cc(C(F)(F)F)n2)cc1 -15.6%
Cc1cccc(NS(=O)(=O)c2ccc3c(c2)n(C)c(=O)n3C)c1C -13.8%
COc1ccccc1N1CCN(c2ncc3c(n2)CCN(Cc2ccc(C)s2)C3)CC1 -13%
O=c1oc2ccccc2cc1-c1nc(-c2cccc(Cl)c2)cs1 -11%
CC[N+](CC)(CC)CCOc1cccc(OCC[N+](CC)(CC)CC)c1OCC[N+](CC)(CC)CC -6.36%
Cc1cccn2c(=O)cc(CSc3nnc(NC(=O)C(C)C)s3)nc12 -13.9%
COc1ccc(Cl)cc1NC(=O)CSc1cc(C)[nH]c(=O)n1 -17.4%
Cc1ccc(Cl)cc1N1CCN(C(=O)c2sc3nc4n(c(=O)c3c2C)CCC4)CC1 -17.4%
CCN(CC)C(=O)Cn1cc(SCC(=O)Nc2cc(OC)ccc2OC)c2ccccc21 1.84%
CN(C)CCNC(=O)c1ccc2nc(Cc3ccccc3)oc2c1 -10.5%
CSc1ccc(CCNC(=O)c2c(C)nn(-c3ccc(F)cc3)c2-n2cccc2)cc1 -7.63%
O=C(NCc1ccc(Cl)cc1)C1CCN(S(=O)(=O)c2ccc(F)cc2)CC1 -5.86%
COc1ccc(C(=O)NCC(c2ccc(N(C)C)cc2)N2CCOCC2)cc1 (stereo unspecified) -8.36%
CCOC(=O)c1noc2ncn(Cc3ccc([N+](=O)[O-])cc3)c(=O)c12 5.23%
Cc1ccc(CSc2nc3ccc(NC(=O)CC(C)C)cc3s2)cc1 1.45%
CCC(C)n1c(SCc2ccc(F)cc2Cl)nc2ccsc2c1=O (stereo unspecified) -8.57%
CCC(CC)C(=O)Nc1ccc2nc(SCC(=O)N3CCOCC3)sc2c1 -14.1%
Cc1ccccc1C(=O)Nc1sc2c(c1C(=O)N1CCCCC1)CCC(C(C)(C)C)C2 (stereo unspecified) -11%
CCOc1ccc(NC(=O)c2c(NC(=O)c3cccc(C)c3)sc3c2CCC3)cc1 -14%
CC1=C(c2ccc(C(C)C)cc2)S(=O)(=O)N=C1N1CCC(C(=O)NCc2ccco2)CC1 -11.1%
O=C(NCC1CCN(Cc2cccc(F)c2)CC1)c1cc2ccc3cccnc3c2[nH]1 -8.74%
CCOC(=O)c1c(NC(=O)CSc2cn(CCNC(=O)c3ccccc3OC)c3ccccc23)sc2c1CCCC2 -12.4%
Cc1cc(C)cc(NC(=O)CN2C(=O)CSc3ccc(S(=O)(=O)N4CCCC4)cc32)c1 -8.84%
CCOc1ccc(NC(=O)Cn2c(=O)n(Cc3ccccc3)c(=O)c3sc4ccccc4c32)cc1 -15.2%
Cc1c(C(=O)NCCc2ccccc2)cccc1-n1cnc2cccnc21 -15.3%
CCc1ccc(NC(=O)CC2C(=O)N(c3ccc(OC)cc3)C(=O)N2Cc2ccc(OC)cc2)cc1 (stereo unspecified) -23.1%
COc1ccc(CCNc2ncnc3c2c(-c2ccccc2)cn3-c2cccc(Cl)c2)cc1OC -33.1%
COc1ccccc1N1CCN(S(=O)(=O)CCNC(=O)COc2ccc(F)cc2)CC1 -32.7%
Cc1ccc(CNC(=O)Cn2c(=O)cc(-c3ccccc3)c3c(C)nn(C)c32)cc1 0.43%
Cc1ccn2c(=O)c(C(=O)NCCc3ccc(S(N)(=O)=O)cc3)c(O)nc2c1 7.88%
Cc1cc(=O)n(Cc2ccc(F)cc2Cl)c2c1c(C)nn2-c1ccccc1 -9.8%
COc1ccccc1CNC(=O)C1CCN(S(=O)(=O)c2c(C)noc2/C=C/c2cccs2)CC1 -14.4%
CCn1c(=O)c2sccc2n2c(CCCC(=O)N3CCN(c4cc(C)ccc4C)CC3)nnc12 -6.96%
COc1cc(C2C(C(=O)OC(C)C)=C(C)N=C3SCCC(=O)N32)ccc1OCc1ccccc1 (stereo unspecified) -2.23%
COc1ccc(NC(=O)NCc2cccn2Cc2ccc(F)cc2)cc1OC -6.71%
Cc1cc(Nc2ccccc2Cl)n2nc(-c3ccco3)nc2n1 -11.1%
COc1cccc(NC(=O)N(Cc2cn(C)c3ccccc23)C2CCCCC2)c1 4.25%
COc1ccc(OC)c(NC(=O)c2c(NCc3ccc(C)o3)sc3c2CCCCC3)c1 -26.9%
Cc1ccc(NCc2ccccc2-c2nnc(-c3ccccc3Cl)o2)cc1Cl -14.5%
COc1ccc(N2C(=O)CSC23C(=O)N(CC(=O)NCc2ccccc2)c2ccccc23)cc1 (stereo unspecified) -16.1%
CS(=O)(=O)NCCc1csc2nc(-c3ccccc3)nn12 -12.7%
COc1ccc(S(=O)(=O)NC2(C(F)(F)F)NC(=O)N(CCc3ccc(OC)c(OC)c3)C2=O)cc1 (stereo unspecified) 11%
COc1ccccc1CNC(=O)CCCn1nc(C)c2c(C)n(-c3ccc(C)cc3)nc2c1=O -12.7%
Cc1nc2ccn(Cc3cccnc3)c(=O)c2cc1C(=O)NCc1ccc(Cl)cc1 -15.1%
O=C(NCCc1ccccc1)C(=O)NCC(c1cccnc1)N1CCN(c2ccccc2)CC1 (stereo unspecified) -3.36%
Cc1cccc2c1-c1sc(C(=O)N3CCN(c4ccc(F)cc4)CC3)cc1CO2 -5.11%
CC(=O)c1ccc(N2CCN(S(=O)(=O)c3cc(-c4onc(C)c4C)ccc3C)CC2)cc1 -3.94%
Cc1ccccc1CNC(=O)CCCn1c(=O)c2cccn2c2ccccc21 15.6%
O=C(Cn1cc(S(=O)(=O)N2CCN(c3ccccc3F)CC2)c2ccccc2c1=O)Nc1cccc(C(F)(F)F)c1 -12.1%
O=C(CSc1nnc2scc(-c3ccc(Cl)cc3)n12)Nc1ccccc1F -3.26%
Cc1ccc2onc(CC(=O)Nc3cc(F)ccc3F)c2c1 -11.2%
Cc1ccc(-c2cc(C(F)(F)F)n3nc(C(=O)Nc4sc5c(c4C#N)CCC(C)C5)cc3n2)cc1 (stereo unspecified) -3.35%
COC(=O)c1c(SC)nc2ccccc2c1OCc1ccc(C)cc1C -18.4%
COc1cc(C(=O)Nc2ccc(Cl)c(-c3nc4ncccc4o3)c2)cc(OC)c1OC 8.83%
COc1ccc(C(=O)Nc2ccc3c(c2)N(C2CCCC2)C(=O)c2ccccc2S3)cc1OC -9.49%
CC(CNC(=O)c1ccc(CSc2nc3ccncc3n2Cc2cccc(F)c2)cc1)c1ccccc1 (stereo unspecified) -11.7%
Cc1ccc(C)c(-c2nn(CC(=O)Nc3cc(F)ccc3F)c(=O)c3c2CCCC3)c1 -11.6%
